Reference: the supplement of paper PMC8728848
Some of the results follow.

Tests used:
Assay in all cases: glycan array binding signal (z-score within array); higher = stronger binding
Settings in all cases: glycan notation: IUPAC condensed, linker removed
[1] = target: Gal(a1-3)Gal(b1-3)GlcNAc
In short: (§1)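 Columns mapping to the same glycan were averaged after glycan names were converted to IUPAC-condensed notation. The data come from 3228 arrays in the Consortium for Functional Glycomics database, limited to those with an available protein sequence. Binding is reported as a within-array Z-score averaged across arrays of one protein sequence and across linkers.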

[2] = target: Gal(a1-3)Gal(b1-3)GlcNAc(b1-2)Man
In short: as §1

[3] = target: Gal(a1-3)Gal(b1-3)GlcNAc(b1-2)Man(a1-3)[Gal(a1-3)Gal(b1-3)GlcNAc(b1-2)Man(a1-6)]Man(b1-4)GlcNAc(b1-4)GlcNAc
In short: as §1

[4] = target: Gal(a1-3)Gal(b1-3)GlcNAc(b1-3)GalNAc
In short: as §1

[5] = target: Gal(a1-3)Gal(b1-3)GlcNAc(b1-6)GalNAc
In short: as §1

[6] = target: Gal(a1-3)Gal(b1-3)[Fuc(a1-4)]GlcNAc(b1-2)Man(a1-3)[Gal(a1-3)Gal(b1-3)[Fuc(a1-4)]GlcNAc(b1-2)Man(a1-6)]Man(b1-4)GlcNAc(b1-4)GlcNAc
In short: as §1

[7] = target: Gal(a1-3)Gal(b1-4)Glc
In short: as §1

[8] = target: Gal(a1-3)Gal(b1-4)GlcNAc
In short: as §1

[9] = target: Gal(a1-3)Gal(b1-4)GlcNAc(b1-2)Man
In short: as §1

[10] = target: Gal(a1-3)Gal(b1-4)GlcNAc(b1-2)Man(a1-3)[Gal(a1-3)Gal(b1-4)GlcNAc(b1-2)Man(a1-6)]Man(b1-4)GlcNAc(b1-4)GlcNAc
In short: as §1

[11] = target: Gal(a1-3)Gal(b1-4)GlcNAc(b1-3)GalNAc
In short: as §1

[12] = target: Gal(a1-3)Gal(b1-4)GlcNAc(b1-6)GalNAc
In short: as §1

[13] = target: Gal(a1-3)Gal(b1-4)[Fuc(a1-3)]GlcNAc
In short: as §1

[14] = target: Gal(a1-3)Gal(b1-4)[Fuc(a1-3)]GlcNAc(b1-2)Man(a1-3)[Gal(a1-3)Gal(b1-4)[Fuc(a1-3)]GlcNAc(b1-2)Man(a1-6)]Man(b1-4)GlcNAc(b1-4)GlcNAc
In short: as §1

[15] = target: Gal(a1-3)GalNAc
In short: as §1

[16] = target: Gal(a1-3)[Gal(a1-4)]Gal(b1-4)GlcNAc
In short: as §1

[17] = target: Gal(a1-4)Gal(b1-3)GlcNAc(b1-2)Man(a1-3)[Gal(a1-4)Gal(b1-3)GlcNAc(b1-2)Man(a1-6)]Man(b1-4)GlcNAc(b1-4)GlcNAc
In short: as §1

[18] = target: Gal(a1-4)Gal(b1-4)Glc
In short: as §1

[19] = target: Gal(a1-4)Gal(b1-4)GlcNAc
In short: as §1

[20] = target: Gal(a1-4)Gal(b1-4)GlcNAc(b1-2)Man(a1-3)[Gal(a1-4)Gal(b1-4)GlcNAc(b1-2)Man(a1-6)]Man(b1-4)GlcNAc(b1-4)GlcNAc
In short: as §1

[21] = target: Gal(a1-4)Gal(b1-4)GlcNAc(b1-3)Gal(b1-4)Glc
In short: as §1

[22] = target: Gal(a1-4)GlcNAc
In short: as §1

[23] = target: Gal(a1-6)Glc
In short: as §1

[24] = target: Gal(b1-2)Gal
In short: as §1

[25] = target: Gal(b1-3)Gal
In short: as §1

[26] = target: Gal(b1-3)Gal(b1-4)GlcNAc
In short: as §1

[27] = target: Gal(b1-3)GalNAc
In short: as §1

[28] = target: Gal(b1-3)GalNAc(a1-3)[Fuc(a1-2)]Gal(b1-4)Glc
In short: as §1

[29] = target: Gal(b1-3)GalNAc(a1-3)[Fuc(a1-2)]Gal(b1-4)GlcNAc
In short: as §1

[30] = target: Gal(b1-3)GalNAc(b1-3)Gal
In short: as §1

[31] = target: Gal(b1-3)GalNAc(b1-3)Gal(a1-4)Gal(b1-4)Glc
In short: as §1

[32] = target: Gal(b1-3)GalNAc(b1-4)Gal(b1-4)Glc
In short: as §1

[33] = target: Gal(b1-3)GalNAc(b1-4)[Neu5Ac(a2-3)]Gal(b1-4)Glc
In short: as §1

[34] = target: Gal(b1-3)GlcNAc
In short: as §1

[35] = target: Gal(b1-3)GlcNAc(a1-3)Gal(b1-4)GlcNAc
In short: as §1

[36] = target: Gal(b1-3)GlcNAc(a1-6)Gal(b1-4)GlcNAc
In short: as §1

[37] = target: Gal(b1-3)GlcNAc(b1-2)Man
In short: as §1

[38] = target: Gal(b1-3)GlcNAc(b1-2)Man(a1-3)[Gal(b1-3)GlcNAc(b1-2)Man(a1-6)]Man(b1-4)GlcNAc(b1-4)GlcNAc
In short: as §1

B1: Tamarinin (protein)
chain: CDDSARAGNIVVYWGQGGSDNSEGSLKEACKSGHYNMIVLQQLIVYDDGRDPDLNLGAHCSDCTKLEEQIKYCQNKDIKILLQIGQVVPTQEDVKDVTKNLSEYLLKNFFSGKSGPLGEVYLNGIDIASVPEGNNLKFDELVEALNDSSTERRIYLSASPLCVYPDYYLNKAIQTEKLDFLFVQFFYQNPCIYTEGNPENLFEAMKTWTKNVPESMIFMALPATPNLDGYIPPRVLNKEILPAVSEASNFAGVMIFDRYFDRFRKYSSKIK
glycan array binding signal (z-score) [1]: -0.375 | glycan array binding signal (z-score) [2]: -0.144 | glycan array binding signal (z-score) [3]: 0.365 | glycan array binding signal (z-score) [4]: 0.753 | glycan array binding signal (z-score) [5]: -0.253 | glycan array binding signal (z-score) [6]: 1.86 | glycan array binding signal (z-score) [7]: -0.41 | glycan array binding signal (z-score) [8]: -0.348 | glycan array binding signal (z-score) [9]: -0.302 | glycan array binding signal (z-score) [10]: -0.05 | glycan array binding signal (z-score) [11]: -0.324 | glycan array binding signal (z-score) [12]: -0.388 | glycan array binding signal (z-score) [13]: -0.374 | glycan array binding signal (z-score) [14]: 0.666 | glycan array binding signal (z-score) [15]: -0.21 | glycan array binding signal (z-score) [16]: -0.349 | glycan array binding signal (z-score) [17]: 1.18 | glycan array binding signal (z-score) [18]: -0.04 | glycan array binding signal (z-score) [19]: -0.384 | glycan array binding signal (z-score) [20]: 0.837 | glycan array binding signal (z-score) [21]: 0.884 | glycan array binding signal (z-score) [22]: 0.001 | glycan array binding signal (z-score) [23]: 0.165 | glycan array binding signal (z-score) [24]: -0.111 | glycan array binding signal (z-score) [25]: -0.08 | glycan array binding signal (z-score) [26]: 11.2 | glycan array binding signal (z-score) [27]: -0.241 | glycan array binding signal (z-score) [28]: -0.437 | glycan array binding signal (z-score) [29]: -0.14 | glycan array binding signal (z-score) [30]: -0.319 | glycan array binding signal (z-score) [31]: -0.212 | glycan array binding signal (z-score) [32]: 1.29 | glycan array binding signal (z-score) [33]: 0.694 | glycan array binding signal (z-score) [34]: -0.283 | glycan array binding signal (z-score) [35]: -0.252 | glycan array binding signal (z-score) [36]: -0.048 | glycan array binding signal (z-score) [37]: -0.169 | glycan array binding signal (z-score) [38]: -0.258
